According to publication PMC11093223, “Cargo selective vesicle tethering: The structural basis for binding of specific cargo proteins by the Golgi tether component TBC1D23” (Science Advances, 2024):
Changes are numbered by the printed parent chain. Numbers in names are those of the source. Results are given in words; binding and its absence hold for the method and conditions named. For some assays here: Binding seen in cells or lysates may run through a third protein. Some entries that bind do so weakly or less than the wild type. For some assays here: Sequences can lack the tags named with a protein. Blank lines part the entries; values can stand above or below the binder they belong to.

By UniProt entry, the sequences of proteins in these tests, tags left out. Where a name states a change or a piece, a line headed by the entry shows the natural chain unless it says otherwise. Chains listed by the source or under a name are the forms on record and can include a tag or linker. Residues count along the entry.
GST-TBC1D23 (559 to 684) (Q8K0F1, residues 559-684): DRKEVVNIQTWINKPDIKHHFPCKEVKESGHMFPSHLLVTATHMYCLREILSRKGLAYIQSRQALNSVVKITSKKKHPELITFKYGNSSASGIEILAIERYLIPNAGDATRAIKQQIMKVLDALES
Mouse TBC1D23 (559-677), C-terminal domain lacking VLDALES (Q8K0F1, residues 559-677): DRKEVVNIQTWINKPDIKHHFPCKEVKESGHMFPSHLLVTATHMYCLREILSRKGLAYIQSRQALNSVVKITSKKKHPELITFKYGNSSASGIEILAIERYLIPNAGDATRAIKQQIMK
TBC1D23 C-terminal domain I675W (Q8K0F1, form named): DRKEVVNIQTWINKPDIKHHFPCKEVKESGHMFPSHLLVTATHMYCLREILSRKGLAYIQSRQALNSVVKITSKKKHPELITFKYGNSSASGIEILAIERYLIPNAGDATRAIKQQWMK
TBC1D23 C-terminal domain V626D (Q8K0F1, form named): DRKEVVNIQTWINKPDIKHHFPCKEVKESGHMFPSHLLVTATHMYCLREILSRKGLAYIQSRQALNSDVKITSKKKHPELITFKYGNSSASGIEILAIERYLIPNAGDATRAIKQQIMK
TBC1D23 C-terminal domain with Lys632, Lys633 and Lys634 mutated to alanine (Q8K0F1, form named): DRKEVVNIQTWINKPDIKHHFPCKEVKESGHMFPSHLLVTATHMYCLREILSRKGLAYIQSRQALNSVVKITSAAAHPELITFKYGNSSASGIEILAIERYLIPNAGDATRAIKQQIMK

Assays:
[1] = target: TBC1D23 C-terminal domain I675W (mouse) (UniProt Q8K0F1); assay: ITC; peptide (0.8 to 5 mM) titrated into 100 μM TBC1D23 C-terminal domain, 20°C, 100 mM NaCl, 100 mM tris pH 7.4, 1 mM TCEP, Nano ITC; both purified
[2] = target: TBC1D23 C-terminal domain V626D (mouse) (UniProt Q8K0F1); assay: as above
[3] = target: TBC1D23 C-terminal domain with Lys632, Lys633 and Lys634 mutated to alanine (mouse) (UniProt Q8K0F1); assay: as above
[4] = target: Mouse TBC1D23 (559-677), C-terminal domain lacking VLDALES (mouse) (UniProt Q8K0F1); assay: crystal structure; TBC1D23 (559-677, -VLDALES) with 1.5 times molar excess of syntaxin-16 peptide; space group P6_(5)22; 0.8 M potassium phosphate dibasic, 0.1 M Hepes/NaOH pH 7.5, 0.8 M sodium phosphate monobasic, 1% 1,2-butandiol; both purified
[5] = target: Mouse TBC1D23 (559-684), C-terminal domain (mouse) (UniProt Q8K0F1); assay: crystal structure; TBC1D23 full-length C-terminal domain (559-684) with 1.5 times molar excess of syntaxin-16 peptide; space group P6_(2)22, four copies in the asymmetric unit; 0.02 M citric acid, 0.08 M bis-tris propane pH 8.8, 16% PEG3350; both purified
[6] = target: GST-TBC1D23 (559 to 684) (mouse) (UniProt Q8K0F1); assay: pull-down; GST-tagged bait from bacterial lysate on glutathione-Sepharose beads (washed, once with 500 mM NaCl), 2 h at 4°C with clarified bacterial lysate containing the prey; 50 mM tris pH 7.4, 150 mM NaCl, 1 mM EDTA, 5 mM 2-mercaptoethanol, 1% Triton X-100; Coomassie stain or anti-His6 …; only the target purified

binding [1]: no binding (tested: KD > 300 μM)
binding [2]: no binding
binding [3]: no binding
Binder: DDNTLYHRGFTED (peptide, UniProt O14662 209-221) [syntaxin-16 (209–221) peptide]

binding [6]: binds
B2: syntaxin-16 (1 to 281)–MBP–His6 (domain or fragment, UniProt O14662-2 1-281)
chain: MATRRLTDAFLLLRNNSIQNRQLLAEQLADDRMALVSGISLDPEAAIGVTKRPPPKWVDGVDEIQYDVGRIKQKMKELASLHDKHLNRPTLDDSSEEEHAIEITTQEITQLFHRCQRAVQALPSRARACSEQEGRLLGNVVASLAQALQELSTSFRHAQSGYLKRMKNREERSQHFFDTSVPLMDDGDDNTLYHRGFTEDQLVLVEQNTLMVEEREREIRQIVQSISDLNEIFRDLGAMIVEQGTVLDRIDYNVEQSCIKTEDGLKQLHKAEQYQKKNRKM

binding [6]: no binding
B3: syntaxin-16 (1-281 with T191A, L192A, and Y193A)–MBP–His6 (domain or fragment, UniProt O14662-2 1-281)
chain: B2 chain with T191A, L192A, Y193A

More lines, now with the values behind:

Binder: DDNTLYHRGFTED [syntaxin-16 peptide (209-221), wild type]
binding [4]: binds
binding [5]: binds

B1: syntaxin-16 (151 to 225)–MBP–His6 (domain or fragment, UniProt O14662-2 151-225)
chain: LSTSFRHAQSGYLKRMKNREERSQHFFDTSVPLMDDGDDNTLYHRGFTEDQLVLVEQNTLMVEEREREIRQIVQS
binding [6]: binds
